# Results: a collection of fitness landscapes (doi:10.1126/science.1257360)
# The list shows a part of the results.
# B1: PhoQ; a variant is named by its letters at X, in order, P23837 (parent)
# chain: MKKLLRLFFPLSLRVRFLLATAAVVLVLSLAYGMVALIGYSVSFDKTTFRLLRGESNLFYTLAKWENNKLHVELPENIDKQSPTMTLIYDENGQLLWAQRDVPWLMKMIQPDWLKSNGFHEIEADVNDTSLLLSGDHSIQQQLQEVREDDDDAEMTHSVAVNVYPATSRMPKLTIVVVDTIPVELKSSYMVWSWFIYVLSANLLLVIPLLWVAAWWSLRPIEALAKEVRELEEHNRELLNPATTRELTSLVRNLNRLLKSERERYDKYRTTLTDLTHSLKTPLXXLQXXLRSLRSEKMSVSDAEPVMLEQISRISQQIGYYLHRASMRGGTLLSRELHPVAPLLDNLTSALNKVYQRKGVNISLDISPEISFVGEQNDFVEVMGNVLDNACKYCLEFVEISARQTDEHLYIVVEDDGPGIPLSKREVIFDRGQRVDTLRPGQGVGLAVAREITEQYEGKIVAGESMLGGARMEVIFGRQHSAPKDE
# Variants of: B1
# Test: enrichment ratio after two sorts for PhoP signalling (ratio (wild type AVST 3.29)); higher = more functional
# Conditions: with PhoP (E. coli)
row,Variant,enrichment ratio
1,WQDW,≤ 0.25
2,LGRV,≤ 0.25
3,GIAG,15.6
4,SEQA,≤ 0.25
5,MIHT,≤ 0.25
6,KQQL,≤ 0.25
7,STSL,9.89
8,DLGD,≤ 0.25
9,SEDW,≤ 0.25
10,GFCN,≤ 0.25
11,LLLY,≤ 0.25
12,RWAI,≤ 0.25
13,MAMF,10.2
14,SHWL,≤ 0.25
15,MAAS,1.31
16,SYPI,≤ 0.25
17,FTRW,≤ 0.25
18,NGGR,≤ 0.25
19,YCVH,≤ 0.25
20,GAKC,≤ 0.25
21,DKDL,≤ 0.25
22,VGAI,3.8
23,PPFP,≤ 0.25
24,PHYA,≤ 0.25
25,MRWV,≤ 0.25

row,Variant,enrichment ratio
1,KILG,1.13
2,RLQK,≤ 0.25
3,NRPG,≤ 0.25
4,NGTF,≤ 0.25
5,DTIL,≤ 0.25
6,NAGP,≤ 0.25
7,DRVL,≤ 0.25
8,YMDN,≤ 0.25
9,LMHV,≤ 0.25
10,ITIW,≤ 0.25
11,WPGD,≤ 0.25
12,MHKH,≤ 0.25
13,NNYL,≤ 0.25
14,FMMP,≤ 0.25
15,APYQ,≤ 0.25
16,FYEC,≤ 0.25
17,KQQS,≤ 0.25
18,NHEY,≤ 0.25
19,PIVI,≤ 0.25
20,YQVH,≤ 0.25
21,NECY,≤ 0.25
22,RPTT,≤ 0.25
23,TFTS,6.18
24,DQGW,≤ 0.25
25,RIML,≤ 0.25

row,Variant,enrichment ratio
1,WRGW,≤ 0.25
2,DLLA,≤ 0.25
3,TISK,3.65
4,KCDE,≤ 0.25
5,IRVD,≤ 0.25
6,LCEP,≤ 0.25
7,YNVE,≤ 0.25
8,RPVM,≤ 0.25
9,AQFF,≤ 0.25
10,QPWW,≤ 0.25
11,ISRE,≤ 0.25
12,SYGS,≤ 0.25
13,RTAS,≤ 0.25
14,AMEH,≤ 0.25
15,GWHV,≤ 0.25
16,YVIT,≤ 0.25
17,YAAA,≤ 0.25
18,QMQS,≤ 0.25
19,DPHW,≤ 0.25
20,TSHR,≤ 0.25
21,GGIW,≤ 0.25
22,QYKW,≤ 0.25
23,GGVN,≤ 0.25
24,PKRK,≤ 0.25
25,FTEE,≤ 0.25

row,Variant,enrichment ratio
1,KKAM,≤ 0.25
2,QAVP,≤ 0.25
3,DRSD,≤ 0.25
4,QYDM,≤ 0.25
5,RRYG,≤ 0.25
6,QESE,≤ 0.25
7,YLNK,≤ 0.25
8,NRKV,≤ 0.25
9,EMPC,≤ 0.25
10,VHVW,≤ 0.25
11,KFWK,≤ 0.25
12,TAPW,≤ 0.25
13,QPYR,≤ 0.25
14,IEYH,≤ 0.25
15,TSQW,≤ 0.25
16,KKQS,≤ 0.25
17,PCYM,≤ 0.25
18,RCTY,≤ 0.25
19,MLNH,≤ 0.25
20,ALWP,≤ 0.25
21,SKQE,≤ 0.25
22,VYDV,≤ 0.25
23,TYKK,≤ 0.25
24,DNFL,≤ 0.25
25,SMNM,≤ 0.25

row,Variant,enrichment ratio
1,AMEL,≤ 0.25
2,SKCY,16.7
3,RGDD,≤ 0.25
4,QGGF,18.4
5,QPKF,≤ 0.25
6,APLA,≤ 0.25
7,LGNA,≤ 0.25
8,PCYW,≤ 0.25
9,NHRT,≤ 0.25
10,RWIY,≤ 0.25
11,KAIP,≤ 0.25
12,QFKF,≤ 0.25
13,PRTG,≤ 0.25
14,EMMI,≤ 0.25
15,NFSK,≤ 0.25
16,APKP,≤ 0.25
17,LIDY,≤ 0.25
18,WKFH,≤ 0.25
19,AEAM,5.95
20,FYMN,≤ 0.25
21,LTYD,≤ 0.25
22,PDYA,≤ 0.25
23,GPFI,≤ 0.25
24,LFTI,≤ 0.25
25,NLVN,≤ 0.25

row,Variant,enrichment ratio
1,TEQS,7.71
2,SNDN,≤ 0.25
3,TTTT,12.1
4,DYWM,≤ 0.25
5,WRMP,≤ 0.25
6,RHAP,≤ 0.25
7,FKEE,≤ 0.25
8,GRLI,≤ 0.25
9,THNR,≤ 0.25
10,GTNL,≤ 0.25
11,MYSS,≤ 0.25
12,RLLP,≤ 0.25
13,NFTI,≤ 0.25
14,DGII,≤ 0.25
15,VNIF,≤ 0.25
16,FGLP,≤ 0.25
17,LGFF,≤ 0.25
18,LVSC,≤ 0.25
19,MNPV,≤ 0.25
20,NGHK,≤ 0.25
21,HTKM,≤ 0.25
22,TDRC,≤ 0.25
23,SQVF,8.78
24,LWYK,≤ 0.25
25,KDRY,≤ 0.25

row,Variant,enrichment ratio
1,ILCL,≤ 0.25
2,WSLK,≤ 0.25
3,TFLN,≤ 0.25
4,IMVY,≤ 0.25
5,VNHI,≤ 0.25
6,NCEP,≤ 0.25
7,SQTQ,11.3
8,LMEP,≤ 0.25
9,WIYF,≤ 0.25
10,IWSS,≤ 0.25
11,EATL,≤ 0.25
12,KEAH,≤ 0.25
13,PMMQ,≤ 0.25
14,IRTV,≤ 0.25
15,FYFE,≤ 0.25
16,IFYH,≤ 0.25
17,IQYM,≤ 0.25
18,RVNG,≤ 0.25
19,FVFC,≤ 0.25
20,HPRG,≤ 0.25
21,IDPW,≤ 0.25
22,NKHQ,≤ 0.25
23,TTEI,9.07
24,PNLN,≤ 0.25
25,YAFN,≤ 0.25

row,Variant,enrichment ratio
1,PHWC,≤ 0.25
2,DAAI,≤ 0.25
3,WKGQ,≤ 0.25
4,HPLA,≤ 0.25
5,MTVT,≤ 0.25
6,QMGI,≤ 0.25
7,EGEM,≤ 0.25
8,PNMD,≤ 0.25
9,FVTF,≤ 0.25
10,DYDY,≤ 0.25
11,LHVQ,≤ 0.25
12,ITDL,≤ 0.25
13,TNLS,3.63
14,HYHS,≤ 0.25
15,DREA,≤ 0.25
16,TEAS,16.2
17,RAPM,≤ 0.25
18,RWQT,≤ 0.25
19,FFAI,≤ 0.25
20,GQHS,≤ 0.25
